Assay results taken from ChEMBL document CHEMBL1201862, “PubChem BioAssay data set” (2004).
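Tested at 5 concentrations; 48 h exposure; 96-well plates; endpoints linearly interpolated, else capped at highest concentration. Abbreviation: GI50, concentration required for 50% inhibition of growth.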 The source made the active and inactive calls. Rule as the data show it: active = GI50 up to about 1.1 µM and inactive = higher.

test system: NCI-H322M; assay: inhibition of tumour cell growth, NCI panel, 48 h

**Q.** For COc1cccc2nc3c(C(=O)NCCN(C)C)cccc3cc12, which GI50 is on record?
**A.** inactive: 2.74 µM

**Q.** Cc1cc(C(F)(F)F)cc(-n2nc(NS(=O)(=O)c3cc(C)c(Cl)cc3S)nc2N)n1 was tested. Which GI50 did it give?
**A.** inactive: 26.7 µM

**Q.** With CN(C)CCCN1c2ccc3ccccc3c2Sc2cccc(Cl)c21 as the molecule, how does the GI50 read?
**A.** inactive: 5.32 µM

**Q.** How did the GI50 turn out when COC(=O)C(Cc1ccccc1)NC(=O)C(CNC(=O)OCc1ccccc1)C(=O)OCc1ccccc1 (centres undefined) was run?
**A.** inactive: 72.1 µM

**Q.** SCCSCCCSCCS was tested. Which GI50 did it give?
**A.** inactive: > 100 µM

**Q.** For O=C1Nc2ccccc2C1Cc1ccc([N+](=O)[O-])cc1 (centres undefined), which GI50 is on record?
**A.** inactive: > 100 µM

**Q.** For O=CC[C@H]1C(=O)C[C@@H]2CCC[C@@H]21, which GI50 is on record?
**A.** inactive: > 100 µM

**Q.** How did the GI50 turn out when Cc1c(CCCl)c(N=P(c2ccccc2)(c2ccccc2)c2ccccc2)n2c(nc3ccccc32)c1C#N was run?
**A.** inactive: > 10 µM

**Q.** Which GI50 does the source give for CCOC(=O)c1cn2c(n1)sc1cc(C)c(C)cc12 here?
**A.** inactive: 19.2 µM

**Q.** CCOP(=O)(OCC)/C(C#N)=C(\C)c1ccco1 was tested. Which GI50 did it give?
**A.** inactive: > 10 µM

**Q.** With CSc1cc(=O)n2c3ccccc3c3ccnc1c32 as the molecule, how does the GI50 read?
**A.** inactive: > 100 µM

**Q.** With CC(C)(Cc1ccccc1)Cc1cc(O)ccc1O as the molecule, how does the GI50 read?
**A.** inactive: 32.4 µM

**Q.** O=C1CCNC/C1=C\c1ccccc1 was tested. Which GI50 did it give?
**A.** inactive: 31 µM

**Q.** How did the GI50 turn out when Cc1ccc(NC(=O)CC/C(CC(=O)C(C)(C)C)=N\NC(=O)C[n+]2ccccc2)cc1C was run?
**A.** inactive: > 100 µM

**Q.** Which GI50 does the source give for Cc1cc2c(=O)[nH]nc(N)c2c(N)n1 here?
**A.** inactive: > 100 µM

**Q.** How did the GI50 turn out when Cc1c(C)c2ccc3oc4ccccc4c3c2oc1=O was run?
**A.** inactive: > 100 µM

**Q.** N=c1c2sc3nc4ccccc4n3c2ncn1Cc1ccccc1 was tested. Which GI50 did it give?
**A.** inactive: > 100 µM

**Q.** With CC(C)N(C(=O)C12C3C4C5(C#N)C3C1(I)C5C42I)C(C)C (centres undefined) as the molecule, how does the GI50 read?
**A.** inactive: > 100 µM

**Q.** For Cc1cc(N(C)c2ccccc2)nc(N(C)c2ccccc2)n1, which GI50 is on record?
**A.** inactive: 39.4 µM

**Q.** With CC(C)=CCc1[nH]c2ccccc2c1C1=C(O)C(=O)C(c2c(CC=C(C)C)[nH]c3ccccc23)=C(O)C1=O as the molecule, how does the GI50 read?
**A.** inactive: 1.56 µM

**Q.** With N=C(N)c1ccc(/N=N\c2c(O)c(C(=O)Nc3ccccc3)cc3ccccc23)cc1 as the molecule, how does the GI50 read?
**A.** inactive: > 100 µM

**Q.** How did the GI50 turn out when Cc1ccccc1C(=O)c1cc(O)ccc1O was run?
**A.** inactive: > 100 µM

**Q.** With c1ccc2c(c1)SCCCS2 as the molecule, how does the GI50 read?
**A.** inactive: > 100 µM

**Q.** With CCOC(=O)c1c(N2CCOCC2)[nH]c(=O)c(C(c2c(O)c(C(=O)OCC)c(N3CCOCC3)[nH]c2=O)C(C)C)c1O as the molecule, how does the GI50 read?
**A.** inactive: > 100 µM

**Q.** For COC(=O)c1ccccc1/C=C1\Cc2c(C)c3c(c(C)c2C1=O)CCC3, which GI50 is on record?
**A.** inactive: > 100 µM

**Q.** With O=c1c2ccccc2nc(-c2ccccc2)n1NCC1(O)OCC(O)C(O)C1O (centres undefined) as the molecule, how does the GI50 read?
**A.** inactive: > 100 µM

**Q.** With Cn1c(N)[n+](C(=O)OCc2ccccc2)c(=O)c2c1ncn2C(=O)OCc1ccccc1 as the molecule, how does the GI50 read?
**A.** inactive: > 100 µM

**Q.** N#CC1(C#N)NC(c2cccnc2)C(C#N)(C#N)NC1c1cccnc1 (centres undefined) was tested. Which GI50 did it give?
**A.** inactive: > 100 µM

**Q.** How did the GI50 turn out when CC(O)CNC1=CC(=O)C(=O)c2ccccc21 (centres undefined) was run?
**A.** inactive: 16.9 µM

**Q.** Which GI50 does the source give for Cc1c(-c2ccc(O)cc2)n(CCCCCCNCCOC(=O)NCCCc2ccc(N(CCCl)CCCl)cc2)c2ccc(O)cc12 here?
**A.** inactive: 2.07 µM

**Q.** For CC1=CC2C(C=C1)S(=O)(=O)N1CC21c1ccccc1 (centres undefined), which GI50 is on record?
**A.** inactive: > 100 µM

**Q.** With CC1(C)C=C(S(=O)(=O)c2ccccc2)Oc2ccccc2O1 as the molecule, how does the GI50 read?
**A.** inactive: > 100 µM

**Q.** Which GI50 does the source give for COc1ccc(/C=N/n2c(=O)[nH]c3ccccc3c2=O)cc1 here?
**A.** inactive: > 100 µM

**Q.** Which GI50 does the source give for CCN(C(=O)N[C@@H](C)C(=O)N[C@@H](Cc1ccccc1)C(=O)OC)c1ccccc1 here?
**A.** inactive: 57.5 µM

**Q.** COc1ccc(C2=C(Cl)c3cc(OC)c(OC)cc3C2)cc1OC was tested. Which GI50 did it give?
**A.** inactive: > 100 µM

**Q.** For CC[C@H]1C=CCC[C@@]2(C[C@@H]3CC[C@H]4[C@@H](C(=O)OCCCCCCCCCCCCCCCC(=O)N(CCCN)C[C@@H](O)CCN)[C@@]5(CCC[C@@H](C)O5)NC(=[N+]34)N2)O1, which GI50 is on record?
**A.** inactive: 1.72 µM

**Q.** With CC(C)NC(C)Cc1ccccc1 (centres undefined) as the molecule, how does the GI50 read?
**A.** inactive: > 100 µM

**Q.** For COc1ccc2c(c1)N=C1CSC(c3cc([N+](=O)[O-])ccc3Cl)N1C2 (centres undefined), which GI50 is on record?
**A.** inactive: 17.8 µM

**Q.** For O=C(O)CSc1nnc(Cc2ccccc2)[nH]1, which GI50 is on record?
**A.** inactive: > 100 µM

**Q.** For COc1cccc(/N=N/C(=N/NC(=O)c2ccc(C)cc2)c2ccc(N(CCC#N)CCC#N)cc2OC)c1, which GI50 is on record?
**A.** inactive: 22.4 µM

**Q.** With c1ccc(C(C2=Nc3cccc4cccc(c34)N2)c2ccccc2)cc1 as the molecule, how does the GI50 read?
**A.** inactive: 25.1 µM

**Q.** COc1ccc(/C=C2\CCC(C)(CN(C)C)C2=O)cc1 (centres undefined) was tested. Which GI50 did it give?
**A.** inactive: > 100 µM

**Q.** Which GI50 does the source give for COCC1OC(N2C(=O)NC(=O)[C@@H]3C=C4CCCCC4=C[C@@H]32)C(OC)C1OC (some centres undefined) here?
**A.** inactive: > 100 µM

**Q.** COc1ccc(/C(Cl)=C(\C=O)c2ccc(OC)c(OC)c2)cc1 was tested. Which GI50 did it give?
**A.** inactive: > 100 µM

**Q.** COc1ccccc1Cn1nc(OC)c2cc([N+](=O)[O-])ccc21 was tested. Which GI50 did it give?
**A.** inactive: > 20.4 µM

**Q.** Which GI50 does the source give for Nn1c(S)nnc1CCCCCCCCc1nnc(S)n1N here?
**A.** inactive: > 100 µM

**Q.** How did the GI50 turn out when CC(C)(C)c1ccc(OCCOc2ccc(C(C)(C)C)cc2N)c(N)c1 was run?
**A.** inactive: > 100 µM

**Q.** Which GI50 does the source give for CC1OC(OC2C(O[C@H]3CC[C@@]4(C)C(=CC[C@H]5[C@@H]6C[C@@H]7O[C@]8(CC[C@@H](CO)CO8)[C@@H](C)[C@@H]7[C@@]6(C)CC[C@@H]54)C3)OC(CO)C(O)C2OC2OC(CO)C(O)C(O)C2O)C(O)C(O)C1O (some centres undefined) here?
**A.** inactive: 2.2 µM

**Q.** CCCn1c(CN(Cc2nc3ccccc3n2CCC)Cc2nc3ccccc3n2CCC)nc2ccccc21 was tested. Which GI50 did it give?
**A.** active: 0.889 µM

**Q.** How did the GI50 turn out when Cc1cccc(C)c1NC(=O)C(=O)CC(=O)c1sc(Nc2c(C)cccc2C)nc1C was run?
**A.** inactive: > 100 µM

**Q.** CS(=O)(=O)c1c(N)c2nc(Cl)cn2c2nc3ccccc3nc12 was tested. Which GI50 did it give?
**A.** inactive: > 100 µM

**Q.** O=S(=O)(N1CCCCN(S(=O)(=O)C(F)(F)F)CCCN(S(=O)(=O)C(F)(F)F)CCCN(S(=O)(=O)C(F)(F)F)CCCCN(S(=O)(=O)C(F)(F)F)CCCN(S(=O)(=O)C(F)(F)F)CCC1)C(F)(F)F was tested. Which GI50 did it give?
**A.** inactive: > 100 µM

**Q.** For COC(=O)c1ccccc1C1CN=NC12Cc1ccc(C)c(C)c1C2=O (centres undefined), which GI50 is on record?
**A.** inactive: 42.2 µM

**Q.** For OCC(CN1CCCCC1)(CN1CCCCC1)CN1CCCCC1, which GI50 is on record?
**A.** inactive: > 100 µM

**Q.** With CSc1c(C#N)c(N)n(-c2ccc(Cl)cc2)c(=O)c1C#N as the molecule, how does the GI50 read?
**A.** inactive: 76.2 µM

**Q.** Which GI50 does the source give for COc1ccc(NC(=O)/C(=N\NC(=O)C[n+]2ccccc2)c2c(O)c3ccc(O)cc3oc2=O)c([N+](=O)[O-])c1 here?
**A.** inactive: > 100 µM

**Q.** With O=[N+]([O-])/C(Cl)=C(\NCCO)C(Cl)=C(Cl)Cl as the molecule, how does the GI50 read?
**A.** inactive: > 100 µM

**Q.** With Cc1ccc(S(=O)(=O)NNCNC(=O)c2ccccc2)cc1 as the molecule, how does the GI50 read?
**A.** inactive: > 100 µM

**Q.** How did the GI50 turn out when O=C(O)C1(Cc2ccc3c(c2)CCC3)Cc2ccccc2C1=O (centres undefined) was run?
**A.** inactive: 55.8 µM

**Q.** For O=C1c2c(Br)sc(Br)c2[C@@H](NC(=O)C(F)(F)F)C1Br (some centres undefined), which GI50 is on record?
**A.** inactive: 4.71 µM

**Q.** Which GI50 does the source give for CCOC(=O)N1CCC(=O)C[C@@H]1C/C=C/P1(=O)O[C@H](c2ccccc2)C(C)N1C(C)C (some centres undefined) here?
**A.** inactive: > 100 µM

**Q.** With CC(=O)C1C(=O)C(=O)N(c2cccc(C)c2C)C1=O (centres undefined) as the molecule, how does the GI50 read?
**A.** inactive: > 100 µM

**Q.** With Clc1ccc2c(NCCCCCCNc3ccnc4cc(Cl)ccc34)ccnc2c1 as the molecule, how does the GI50 read?
**A.** inactive: 5.24 µM

**Q.** For COc1cc(OC)c(-c2oc3ccccc3c(=O)c2O)c(OC)c1, which GI50 is on record?
**A.** inactive: > 100 µM
